Measured values reported in the supplement of paper PMC10126150.
Sequences with one replicate were seen in a single cluster, so their values are uncertain.

System: ATP
Assay: switch fluorescence ratio, 500 uM ATP over buffer (Cy3 cluster intensity, sum of 5 cycles each) (fold (ratio)); higher = stronger signal-on switching upon ATP binding; sequences stand for … in TCGTCGGCAGCGTCAGATGTGTATAAGAGACAGTTTTTTTTTTTTTTTTTTTTTTTTT…TC
Conditions: aptamer strand: ATP DNA aptamer (quencher-CACCTGGGGGAGTATTGCGGAGGAAGG + anchor), 100 nM annealed; ATP concentration: 500 uM; one replicate
How it was run: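 Exposure to 500 uM ATP lasted 15 min at 22 °C before imaging, and a selection-buffer image was taken beforehand, for Cy3-labelled switching-strand clusters on a modified Illumina MiSeq flow-cell annealed to 100 nM quencher-labelled ATP aptamer. Five buffer/ATP cycles were run with NaOH stripping and re-annealing between them. The fluorescence ratio per cluster is summed target-cycle over summed buffer-cycle Cy3 intensity, averaged per switch-domain sequence. Clusters outside 100-1000 RFU were excluded.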

| Sequence | switch fluorescence ratio |
| --- | --- |
| TCTTCTCAGG | 1.1 |
| CGATAAAGA | 1.04 |
| CTAAGTATCA | 1.07 |
| TCATTTCAAC | 1.03 |
| GCGGGGTTCT | 1.03 |
| GCGGGGTGTA | 0.984 |
| ATAGTTAC | 1 |
| ATCGTTTCCG | 0.923 |
| GTAAGGGGA | 1.47 |
| TTAATCATAA | 0.969 |
| AGCAGTACCG | 1.1 |
| TGCCGGACGC | 0.947 |
| GAAAGAAAAC | 1.05 |
| TCTTAGAGTG | 1.02 |
| AAGGAAAAGA | 1.01 |
| AGCGACGACT | 0.992 |
| TCGCTCCCTG | 1.06 |
| CTTAAGGACA | 1 |
| CGCATTGCCT | 1.09 |
| CTGGTTTTCT | 1.01 |
| TTCGCCGATT | 1.4 |
| AATTACTGGT | 1.2 |
| CAGGCATACG | 1.06 |

| Sequence | switch fluorescence ratio |
| --- | --- |
| ATGGCGGGCC | 1.01 |
| CGGCAATAAA | 3.25 |
| GACTCATAGG | 0.946 |
| GTTAACAGGT | 1.02 |
| TTGCTTCTT | 1.01 |
| AGATAGAATA | 0.915 |
| GATTCAAAAA | 1.02 |
| ACCTGGAGGT | 0.978 |
| GCTAGCTACA | 1.02 |
| ATTGAAAGTT | 1.02 |
| AAGCGACATG | 1.02 |
| TGTTAAACGT | 1.03 |
| AAAGTTCTAA | 0.974 |
| ACGGATGGGT | 1 |
| GTAATGCCAC | 0.99 |
| GATAGAAGAT | 1.02 |
| GTGTCAGCTA | 1.02 |
| GACTGTCTCC | 1.05 |
| GAGTGAGCG | 1.03 |
| AATGGTTTC | 0.981 |
| GTAAGATATA | 1.01 |
| TTGACATAGC | 1.04 |
| CTTAGCCGTT | 0.976 |

| Sequence | switch fluorescence ratio |
| --- | --- |
| TGCAGTTATT | 0.985 |
| GATCGTTTG | 1.01 |
| AAAGGATTAA | 1 |
| TACTGGGTGT | 1.08 |
| TTATAGATCA | 1.03 |
| GGAGGTTTGT | 0.971 |
| GTCGTGAGGA | 1.01 |
| TATTGTACCC | 1.04 |
| TTGTTATTAT | 0.974 |
| CTTTATAAGG | 1.01 |
| GCTCGCATTG | 1.07 |
| GACTAGTATG | 1.05 |
| ATATCAGAGG | 0.959 |
| TCAAGTTTGA | 1 |
| GATGTGGGAA | 0.955 |
| GGACCTCCCA | 1.11 |
| GGCTAATGTG | 0.988 |
| TATCGGCCAA | 1 |
| CCGGGGAGAT | 1.01 |
| ACAGATTTCG | 1.03 |
| TTCACTGTAC | 1.56 |
| GTATTCCCGT | 0.979 |
| CCTTTTAAT | 1.04 |

| Sequence | switch fluorescence ratio |
| --- | --- |
| CGCTGGCGCG | 1.03 |
| GGGAATAACA | 1.05 |
| TACTGTCAGT | 1.01 |
| CAGTTGTCAA | 0.977 |
| TCGCCAAATG | 1.04 |
| ACCTTATAGG | 1.03 |
| GTATCCTCCG | 2.85 |
| ACATCGGGTT | 1.02 |
| GTAAGCATTC | 1.6 |
| AGTCCTCTCG | 1.16 |
| TCAGTGGCGA | 1.03 |
| AAAGGCCGGT | 0.992 |
| GGAAATAGAA | 0.988 |
| TAGTACTCTT | 1.04 |
| CCAGGTTATA | 0.989 |
| GATCTCAGCG | 0.968 |
| GATCTTGCAG | 0.964 |
| AGGCCGGT | 0.963 |
| CAGACAGGAA | 1.07 |
| GCCAAATTAC | 1.43 |
| GATGCTGAGT | 1.02 |
| GTAATACAAT | 0.968 |
| TATATTCAAG | 0.958 |

| Sequence | switch fluorescence ratio |
| --- | --- |
| AGGGTGGGCA | 0.989 |
| AAATGAGTCA | 1.03 |
| CGATAGCGTA | 1.06 |
| ACAGACGGAG | 0.967 |
| TCCGCTACAG | 2.51 |
| GCCAATCTT | 0.968 |
| AAAAGCACCT | 1.41 |
| CGGCCCCGAT | 0.967 |
| GACATGCAAC | 1.2 |
| CGGGTAGAC | 1.09 |
| CAAAGCTAAT | 1.06 |
| AAGACGGCTC | 1.05 |
| TCCGTTTAT | 1.09 |
| GCTCAAAAGC | 1.02 |
| CGTGCACTGC | 1.13 |
| AACTCTCACC | 1.11 |
| AGTCGAATCG | 0.999 |
| ATGCCAAGTT | 0.953 |
| AAAGGACCCG | 1.13 |
| TTGGCAAAAA | 1.02 |
| CGGCACAACT | 1.12 |
| TATTCTTGAT | 0.986 |
| TCTGCACGGT | 1.04 |

| Sequence | switch fluorescence ratio |
| --- | --- |
| GTATTATTCG | 0.978 |
| CGGAACGCAA | 5.07 |
| TAAATAAAGG | 1.03 |
| GCGGTCTATA | 1.01 |
| AGTGGTAATT | 1.01 |
| TCGTCTAGGG | 1.02 |
| CTGGGAAAAA | 1.05 |
| GGAGCCCTAA | 1.04 |
| GGGCAGAAGG | 1.01 |
| TTTGAGATTC | 0.976 |
| AATCTAAAGC | 1.01 |
| TAGTTGTGAA | 0.993 |
| CGGGAGTCAA | 1.36 |
| CCTTGCTCAA | 2.02 |
| ATCGGTATTG | 0.931 |
| ATGATGCGG | 0.993 |
| CTGTGCCTA | 1.01 |
| TATTCGCGGA | 0.981 |
| TCTATTGGCA | 1.01 |
| AGCGCTTCC | 1.62 |
| GAGTACGATA | 1.02 |
| CACATGCCAG | 0.912 |
| TATAGGAGAA | 0.979 |

| Sequence | switch fluorescence ratio |
| --- | --- |
| TGAGTATGAT | 0.965 |
| TCTTAACCGT | 1.04 |
| ATGTACGTGT | 1.04 |
| TAAACCGGCA | 1.31 |
| CGGTGGGAGC | 0.974 |
| AGTGGTGACC | 0.988 |
| ACCAACATAT | 1.1 |
| GCCATCTGGA | 1.01 |
| GCTTGTCTCC | 1.05 |
| TCGGTTTACA | 0.969 |
| AGTTCGTAT | 1.03 |
| ATGCGAGAAT | 0.98 |
| TTACCTGCTT | 1.09 |
| TGACCTCATT | 1.05 |
| TATGTGGCTT | 1.06 |
| AACTATTGGG | 1.01 |
| CGTGGCGGCG | 0.946 |
| CCGACATCTA | 2.38 |
| CACTAGTATC | 1.02 |
